The source of these data is paper PMC4336329 (PLoS ONE, 2015).

In all, about 310,000 compounds went through this assay and about 2,200 (0.71%) showed an effect of 50% or more. The effect is printed as a negative number. This is one part of the list.

For this assay, the target named is human ether-à-go-go-related gene (hERG) potassium channel (human, UniProt Q12809). The assay can be described thus: primary screen, population patch clamp on CHO cells stably expressing hERG. As to the method: Briefly, Chinese hamster ovary (CHO) cells stably expressing the hERG channel were dislodged from tissue culture flasks and dispensed into PPC plates. […] During the recording, background leak currents were estimated by a 100 ms step to -80 mV from an initial holding potential of -70 mV and subtracted from the subsequent current measurement. The campaign was conducted in two phases using slight differences in recording protocol. In the first phase, the initial voltage pulse used a 100 ms step to -30 mV from a holding potential of -70 mV, a 2 s conditioning step to +25 mV, and a 2 s test step to -30 mV. During the second phase of the screen, the potential during the conditioning step was raised to +45 mV. In both phases of the campaign, a secondary voltage pulse was applied using the same parameters as the second phase initial pulse. The initial and secondary pulses were applied in the absence of compound, and upon application of 1 μM and 10 μM test concentrations. Small molecule effects on hERG current density were quantified by […].
Sequence of human ether-à-go-go-related gene (hERG) potassium channel (Q12809 whole entry, looked up): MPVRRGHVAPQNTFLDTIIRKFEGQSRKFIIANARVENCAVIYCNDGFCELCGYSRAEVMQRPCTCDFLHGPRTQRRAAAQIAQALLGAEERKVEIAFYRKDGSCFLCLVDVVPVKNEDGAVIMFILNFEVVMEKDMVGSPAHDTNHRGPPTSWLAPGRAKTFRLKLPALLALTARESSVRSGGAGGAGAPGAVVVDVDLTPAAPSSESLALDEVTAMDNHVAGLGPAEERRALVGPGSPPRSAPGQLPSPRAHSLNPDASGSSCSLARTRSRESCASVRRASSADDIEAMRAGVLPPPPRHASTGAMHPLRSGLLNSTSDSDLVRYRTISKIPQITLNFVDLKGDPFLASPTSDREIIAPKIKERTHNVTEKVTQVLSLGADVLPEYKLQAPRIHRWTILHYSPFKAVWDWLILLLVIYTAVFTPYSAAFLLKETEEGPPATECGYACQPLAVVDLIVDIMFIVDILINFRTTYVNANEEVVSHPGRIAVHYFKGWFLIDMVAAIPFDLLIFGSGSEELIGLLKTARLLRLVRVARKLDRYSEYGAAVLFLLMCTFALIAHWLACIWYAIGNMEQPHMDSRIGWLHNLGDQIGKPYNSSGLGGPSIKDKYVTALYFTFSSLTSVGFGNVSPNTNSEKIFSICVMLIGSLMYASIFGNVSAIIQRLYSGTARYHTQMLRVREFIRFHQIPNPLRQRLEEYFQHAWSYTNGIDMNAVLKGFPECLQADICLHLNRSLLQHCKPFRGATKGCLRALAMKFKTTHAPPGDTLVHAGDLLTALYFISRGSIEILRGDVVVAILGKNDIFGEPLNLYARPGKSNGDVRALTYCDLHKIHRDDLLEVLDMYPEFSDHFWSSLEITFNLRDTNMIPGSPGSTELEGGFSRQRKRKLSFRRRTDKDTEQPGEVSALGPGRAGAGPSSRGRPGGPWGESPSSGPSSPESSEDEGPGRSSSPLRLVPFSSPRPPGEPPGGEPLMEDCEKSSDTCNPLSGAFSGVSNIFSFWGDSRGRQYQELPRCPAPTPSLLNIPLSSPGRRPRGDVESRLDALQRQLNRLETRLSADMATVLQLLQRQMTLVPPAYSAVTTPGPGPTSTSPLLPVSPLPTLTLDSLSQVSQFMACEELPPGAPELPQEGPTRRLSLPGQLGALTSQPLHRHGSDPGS
For the molecule `O=c1cc(-c2ccc(F)cc2F)[nH]c2ccccc12`, the “hERG current change (%, negative = inhibition) at 1uM” value turned out to be 6.35%. Next, `CN(C)CCOC(=O)c1cccc(Br)c1.Cl`: -1.29%; `CS(=O)(=O)O/N=C1\CCCCC1c1ccc([N+](=O)[O-])cc1[N+](=O)[O-]` (stereo not drawn): 8.44%; `COc1ccccc1-c1noc(-c2cc(OC)c(OC)c(OC)c2)n1`: -2.53%.

Consider `CCOc1ccc(NC(=O)C(=O)NCCN2CCN(S(=O)(=O)c3ccccc3)CC2)cc1`, for which the “hERG current change (%, negative = inhibition) at 1uM” value is listed as -4.13%.

Regarding `Cl.N=c1sccn1CC(=O)Nc1ccc(S(N)(=O)=O)cc1`, the “hERG current change (%, negative = inhibition) at 1uM” value turned out to be 12.4%. Regarding `C=CCOc1ccc(C2C(C#N)=C(N)N(Nc3ccccc3)C3=C2C(=O)CCC3)cc1OC` (stereo not drawn), the “hERG current change (%, negative = inhibition) at 1uM” value is reported as -1.71%. The result for `CCC1Sc2ccc(S(=O)(=O)Nc3ccc(OC)cc3)cc2NC1=O` (stereo not drawn) reads 11%; that for `Cc1ccc(C(=O)c2ccc([N+](=O)[O-])cc2)cc1C`, 10.8%. The result for `O=C(CCCn1c(=S)[nH]c2ccc(Br)cc2c1=O)NCc1ccccn1` reads 12%; that for `COc1cccc(OCCNCc2ccccc2)c1.O=C(O)C(=O)O`, 10.9%; that for `CCOc1ccccc1NC(=O)c1ccc(Cl)c(NC(=O)CC(c2ccccc2)c2ccccc2)c1`, 5.65%. Next, `COc1ccccc1CCNC(=O)C(=O)NCC1OCCCN1S(=O)(=O)c1cc(C)ccc1C` (stereo not drawn): 2.89%; `COc1ccccc1-c1cn[nH]c(=S)n1`: 17.5%. For the molecule `CCOC(=O)CN1C(=O)/C(=C/c2cccc(Br)c2)Oc2ccccc21`, the “hERG current change (%, negative = inhibition) at 1uM” value is 15.3%. Next, `Cc1ccc(C(=O)N/C(=C/c2ccco2)C(=O)NC2CCS(=O)(=O)C2)cc1` (stereo not drawn): 13.2%. Next, `O=C(NNC(=O)c1cccc(Br)c1)Nc1ccc(Cl)cc1`: 9.84%; `O=CNNC(=O)c1cccc([N+](=O)[O-])c1`: 15.9%; `CCc1ccc(N2C(=O)NC(=O)/C(=C/c3cccn3CCOc3ccc(C(C)CC)cc3)C2=O)cc1` (stereo not drawn): 14%.

On to `Cc1ccc(C(=O)NC(C)C2CC3CCC2C3)cc1` (stereo not drawn), for which the “hERG current change (%, negative = inhibition) at 1uM” value came out at 15.1%. Consider `O=C(CNS(=O)(=O)c1ccc(Br)s1)NCc1ccccc1`, for which the “hERG current change (%, negative = inhibition) at 1uM” value turned out to be 16.8%. Next, `Cc1c(Cl)c(C(=O)N2CCCCCC2)nn1C`: 13.4%; `Cc1nn(-c2ccccc2)c(C)c1NC(=O)COC(=O)CCOc1ccccc1`: -1.81%; `Nc1ncnc2c1ncn2CCNCCc1ccccc1`: -13.7%.

Consider `CCN(C(=O)COC(=O)c1[nH]c(=O)[nH]c(=O)c1N)c1ccccc1`, for which the “hERG current change (%, negative = inhibition) at 1uM” value is 19.7%. `CN(C)c1ccc(-c2cccc(C3CC=CC4C3C(=O)N(Cc3ccccc3)C4c3ccc(C(F)(F)F)cc3)c2)cc1` (stereo not drawn): the “hERG current change (%, negative = inhibition) at 1uM” value came to 16.7%.

With `CC(Oc1ccc2c(c1)oc(=O)c1ccccc12)C(=O)NC(Cc1c[nH]c2ccc(O)cc12)C(=O)O` (stereo not drawn), the “hERG current change (%, negative = inhibition) at 1uM” value is on record as 17%.

Consider `O=C(CCSc1ccccc1)NCCSc1ccccn1`, for which the “hERG current change (%, negative = inhibition) at 1uM” value is 15.7%. The result for `COc1cccc(Cl)c1NC(=O)N1CCN(c2cc(C)nc3ccccc23)CC1` reads -49.8%; that for `N=C1C(c2nc3ccccc3s2)=C(O)CN1C1CCC(O)CC1` (stereo not drawn), 9.85%; that for `Cc1cccc(OC(=O)c2sc(Cl)nc2C)c1`, -2.52%. For the molecule `CCS(=O)(=O)NCC(c1cccnc1)N1CCN(c2ccccc2OC)CC1` (stereo not drawn), the “hERG current change (%, negative = inhibition) at 1uM” value is listed as 6%. Next, `CN(CC(=O)NC1CC(C)(C)NC(C)(C)C1)S(=O)(=O)c1ccc(Br)cc1`: 3.35%; `Cc1ccc(Cc2cnc(NC(=O)/C(C#N)=C/c3ccc(-c4ccc([N+](=O)[O-])cc4)o3)s2)cc1`: 10.7%. Next, `COc1ccc(OC)c(S(=O)(=O)Nc2ccccc2C)c1`: 10.2%. The result for `Cc1cccc(NC2=NC(=S)N(c3cccc(C(=O)O)c3)C23CCCCC3)c1` reads 13.5%; that for `Cc1cc(C)cc(-n2c(SCC(=O)NCc3ccco3)nc3ccccc3c2=O)c1`, 7.3%. For the molecule `O=S(=O)(Cc1cc(Cl)nc(-c2cccnc2)n1)c1ccccc1`, the “hERG current change (%, negative = inhibition) at 1uM” value is 4.47%. Next, `CCN(CC)CCCC(C)N=C(c1ccccc1)c1c(O)n(C)c(=O)n(C)c1=O` (stereo not drawn): 11.9%; `COCCCn1c(SCC(=O)NC(C)(C)C)nnc1-c1cccs1`: 10.8%. The result for `CCOC(=O)c1c(C)[nH]c(C)c1C(=O)COC(=O)C1CCCN1S(=O)(=O)c1ccccc1F` (stereo not drawn) reads 9.3%; that for `COc1ccc(/C=C(\C#N)c2n[nH]c(Cn3cncn3)n2)cc1`, 3.43%.

`CSc1ncccc1C(=O)OCC(=O)N(C)C1CCS(=O)(=O)C1` (stereo not drawn): the “hERG current change (%, negative = inhibition) at 1uM” value is on record as 12.8%.

For the molecule `O=C(NC(=S)N1CCN(c2ccc(F)cc2)CC1)c1cccs1`, the “hERG current change (%, negative = inhibition) at 1uM” value is listed as 0.287%.

For `Cc1[nH]n(-c2ccccc2)c(=O)c1C=NCc1ccncc1`, the “hERG current change (%, negative = inhibition) at 1uM” value is recorded as -1.94%.

As to `CCN1CCN(c2c(Cl)cccc2NC(=O)c2cc3ccccc3o2)CC1`, the “hERG current change (%, negative = inhibition) at 1uM” value was found to be 4.41%. Next, `O=C(COc1ccc(Cl)cc1Br)Nc1ccncc1`: 4.76%.

Turning to `CN1C(=O)NC(c2ccccc2[N+](=O)[O-])C2=C1CCCC2=O` (stereo not drawn), the “hERG current change (%, negative = inhibition) at 1uM” value was found to be 9.86%. The result for `Cc1cc(C)n(CCC(=O)N/N=C/c2ccccc2O)n1` reads 13.4%; that for `S=c1[nH]nc(CSc2nc3ccccc3s2)o1`, 3.83%. Next, `O=CN1N=C(c2ccccc2)CC1c1ccc(Cl)cc1` (stereo not drawn): -3.5%; `COC(=O)c1ccccc1NC(=O)CN(C)S(=O)(=O)c1ccc(OC)cc1`: 6.94%. Next, `Cc1cc(C)nc(NS(=O)(=O)c2ccc(NC(=O)CSc3ncn[nH]3)cc2)n1`: 14%; `CCOC(=O)c1cc(-c2cccc([N+](=O)[O-])c2)on1`: 11.5%. Consider `COC(=O)c1ccc(CNC(=O)c2sccc2-c2ccccc2)cc1`, for which the “hERG current change (%, negative = inhibition) at 1uM” value amounted to 13%. Next, `COc1ccc(NC(=O)N2CCN(S(C)(=O)=O)CC2)cc1OC`: 11.4%.

As to `O=C(NCCc1ccc(Cl)cc1)c1ccc2ccccc2n1`, the “hERG current change (%, negative = inhibition) at 1uM” value is reported as 3.69%.
